This is one part of the list. Values were computed here from the reads of four pooled replicates and scatter widely.

The target in this experiment is T1, Pho4 (S. cerevisiae) (UniProt P07270).
T1 sequence: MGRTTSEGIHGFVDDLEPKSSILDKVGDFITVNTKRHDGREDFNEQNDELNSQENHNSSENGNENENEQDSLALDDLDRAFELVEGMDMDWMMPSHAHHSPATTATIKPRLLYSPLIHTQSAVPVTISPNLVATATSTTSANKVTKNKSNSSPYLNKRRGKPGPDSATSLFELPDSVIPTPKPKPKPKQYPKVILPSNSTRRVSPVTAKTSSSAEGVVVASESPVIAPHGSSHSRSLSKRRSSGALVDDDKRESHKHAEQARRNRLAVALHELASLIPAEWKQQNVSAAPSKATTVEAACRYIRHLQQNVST
Description: relative binding free energy (BET-seq); higher = weaker binding. The note with it: reference: library average.
For ATAGACACGTGATTTT, the “relative binding free energy” value stood at 0.05 kcal/mol.

Take GGTAGCACGTGCTTTT: the “relative binding free energy” value is -0.07 kcal/mol.

As for TAGATCACGTGTTGTG, the “relative binding free energy” value was 0.22 kcal/mol.

Turning to GCGGGCACGTGTAGAG, the “relative binding free energy” value is -0.04 kcal/mol.

Regarding AAGGTCACGTGTATAT, the “relative binding free energy” value came to 0.04 kcal/mol.

On to TATTTCACGTGTGATG, for which the “relative binding free energy” value was found to be 0.26 kcal/mol.

With TCGGTCACGTGTGCGG, the “relative binding free energy” value is 0.09 kcal/mol.

For GGCGGCACGTGAGTTA, the “relative binding free energy” value was determined as 0.16 kcal/mol.

For the sequence TGTCGCACGTGTCGAG, the “relative binding free energy” value was -0.01 kcal/mol.

Turning to GGATTCACGTGAGGTG, the “relative binding free energy” value was found to be 0.37 kcal/mol.

Regarding GGTACCACGTGGGCGG, the “relative binding free energy” value is -0.2 kcal/mol.

For the sequence GATGTCACGTGCAGGT, the “relative binding free energy” value was determined as 0.06 kcal/mol.

Consider GTAGTCACGTGAAGAT, for which the “relative binding free energy” value came out at 0.39 kcal/mol.

With CTTGTCACGTGTTTCG, the “relative binding free energy” value was 0.13 kcal/mol.

Regarding GTTGTCACGTGGTGGT, the “relative binding free energy” value came out at 0.14 kcal/mol.

With TTAAACACGTGAGTTA, the “relative binding free energy” value came to 0.18 kcal/mol.

Turning to AGTGGCACGTGGGGTG, the “relative binding free energy” value was -0.16 kcal/mol.

On to TGTTTCACGTGTCGAG, for which the “relative binding free energy” value came to 0.11 kcal/mol.

On to AATAGCACGTGTCGGG, for which the “relative binding free energy” value is -0.13 kcal/mol.

On to AACTTCACGTGTGGTA, for which the “relative binding free energy” value worked out at 0.39 kcal/mol.

Turning to GGTATCACGTGGCGGC, the “relative binding free energy” value came out at 0.18 kcal/mol.

Turning to TGTAACACGTGATCTG, the “relative binding free energy” value was determined as 0.1 kcal/mol.

For the sequence GAAGTCACGTGGGCTG, the “relative binding free energy” value was -0.14 kcal/mol.

As to GGTTGCACGTGATCGG, the “relative binding free energy” value came to 0.16 kcal/mol.

Take ATTTACACGTGTTTCG: the “relative binding free energy” value is -0.05 kcal/mol.

With GGTGGCACGTGTTGGG, the “relative binding free energy” value turned out to be 0.1 kcal/mol.

Regarding CGGGTCACGTGTCTGT, the “relative binding free energy” value was 0.1 kcal/mol.

With GGTGACACGTGATCGT, the “relative binding free energy” value was -0.01 kcal/mol.

For GTAGCCACGTGGAGGG, the “relative binding free energy” value was 0 kcal/mol.

For the sequence TAAGTCACGTGAGGTA, the “relative binding free energy” value was determined as 0.24 kcal/mol.

Regarding TAAGTCACGTGGTAGA, the “relative binding free energy” value is 0.14 kcal/mol.

As to CTTGACACGTGCTGGG, the “relative binding free energy” value was -0.08 kcal/mol.

For GGAGTCACGTGCTTTG, the “relative binding free energy” value turned out to be 0.17 kcal/mol.

On to TGTGGCACGTGGAAGG, for which the “relative binding free energy” value is -0.04 kcal/mol.

As to GTCGACACGTGGATGG, the “relative binding free energy” value came to 0.14 kcal/mol.

Regarding TGTGGCACGTGGGCGG, the “relative binding free energy” value was -0.16 kcal/mol.

With GTGGCCACGTGTTAAT, the “relative binding free energy” value amounted to 0.09 kcal/mol.

Take AAGGCCACGTGTTTTG: the “relative binding free energy” value is -0.05 kcal/mol.

As for ATTGACACGTGGTTAT, the “relative binding free energy” value was 0.03 kcal/mol.

As to CGGGTCACGTGATAAT, the “relative binding free energy” value came to 0.3 kcal/mol.

As for TCAGTCACGTGACGGT, the “relative binding free energy” value was determined as 0.25 kcal/mol.

Consider GATGGCACGTGTTTCG, for which the “relative binding free energy” value was -0.08 kcal/mol.

Consider CGATTCACGTGAGTGT, for which the “relative binding free energy” value stood at 0.4 kcal/mol.

Regarding TTACTCACGTGGGTAA, the “relative binding free energy” value is 0.05 kcal/mol.

As for TATTTCACGTGAGAGA, the “relative binding free energy” value was 0.34 kcal/mol.

CGTATCACGTGAGGGG: the “relative binding free energy” value turned out to be 0.25 kcal/mol.

In the case of TAGGTCACGTGTTACA, the “relative binding free energy” value is 0.13 kcal/mol.

Take GGTGGCACGTGAATGC: the “relative binding free energy” value turned out to be 0.26 kcal/mol.

As to TTGTGCACGTGGATTT, the “relative binding free energy” value was found to be 0.15 kcal/mol.

Regarding CCAATCACGTGGGGGT, the “relative binding free energy” value is 0.03 kcal/mol.

For TGAATCACGTGGGGCG, the “relative binding free energy” value came to 0.16 kcal/mol.

On to TTATACACGTGTATCT, for which the “relative binding free energy” value was 0.05 kcal/mol.

As to GTAGACACGTGCGGTA, the “relative binding free energy” value is -0.04 kcal/mol.

CATTACACGTGGCGTT: the “relative binding free energy” value was 0.19 kcal/mol.

With GTATTCACGTGACGGA, the “relative binding free energy” value turned out to be 0.39 kcal/mol.

With GGGATCACGTGGAGTG, the “relative binding free energy” value was 0.13 kcal/mol.

On to GTGTTCACGTGGACCG, for which the “relative binding free energy” value is 0.29 kcal/mol.

Take AGGCACACGTGGGTGT: the “relative binding free energy” value was -0.09 kcal/mol.

As to TAGGGCACGTGTCTTA, the “relative binding free energy” value was 0.04 kcal/mol.

With TCTAGCACGTGGATTT, the “relative binding free energy” value worked out at 0.01 kcal/mol.

Turning to AGTTGCACGTGGTGCA, the “relative binding free energy” value was -0.02 kcal/mol.

In the case of CTTATCACGTGTAATG, the “relative binding free energy” value worked out at 0.16 kcal/mol.

For TTATACACGTGTTATA, the “relative binding free energy” value is 0.09 kcal/mol.
